Laboratory results from PubChem BioAssay AID485344 (National Center for Advancing Translational Sciences (NCATS), 2010).
Out of some 340,000 compounds screened, about 6,900 (2%) were called active. Cut-off read from the data, not from the text of the source: active = inhibition above about 30%; inactive = below that, where a call was filed. Only a part is listed here, and it is no random draw. Where no call is shown, the source filed none.
Note: 0% is about no effect.

What follows are compounds tested against D(2) dopamine receptor (Homo sapiens) (UniProt P14416) (assay: HTS Assay for Allosteric Antagonists of the Human D2 Dopamine Receptor: Primary Screen for Antagonists). Details: HEK293 TREx D2 cells, calcium flux, dopamine EC80; at 10 µM; stronger effect = higher value.
UniProt P14416, sequence (P14416 whole entry, looked up): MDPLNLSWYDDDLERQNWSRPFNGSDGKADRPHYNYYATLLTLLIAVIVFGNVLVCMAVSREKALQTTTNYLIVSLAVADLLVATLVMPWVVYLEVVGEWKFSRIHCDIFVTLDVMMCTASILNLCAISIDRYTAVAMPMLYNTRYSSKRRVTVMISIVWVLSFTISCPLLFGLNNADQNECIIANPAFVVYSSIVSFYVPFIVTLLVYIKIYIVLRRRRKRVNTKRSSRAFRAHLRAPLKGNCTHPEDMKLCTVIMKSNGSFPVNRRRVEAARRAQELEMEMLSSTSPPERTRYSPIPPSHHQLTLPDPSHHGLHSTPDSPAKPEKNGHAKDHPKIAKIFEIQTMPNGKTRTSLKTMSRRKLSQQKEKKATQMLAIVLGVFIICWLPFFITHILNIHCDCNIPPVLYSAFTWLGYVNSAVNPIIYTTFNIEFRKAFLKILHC
Summary of the method: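 Calcium flux kinetic readout in an inducible HEK293 TREx D2 line plated overnight at 30 C. After 180 s compound exposure, an EC80 dopamine challenge follows with another 180 s kinetic read to detect antagonism.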
`CCOC(=O)N1CCN(C(=O)CN(c2ccc(C)cc2C)S(=O)(=O)c2ccccc2)CC1` gave an inhibition of -1.28%. `CCOC(=O)c1c(C)[nH]c(C)c1S(=O)(=O)N(C)CC(=O)N1CCN(c2ccccc2OC)CC1` gave an inhibition of 7.35%. `COc1ccc(NC(=O)Cn2cc(C(=O)C3CC3)c3ccccc32)cc1` gave an inhibition of 1.82%. `COC(=O)c1cc(NC(=O)CN(c2ccccc2)S(=O)(=O)N(C)C)ccc1Cl` showed an inhibition of 6.41%. `NS(=O)(=O)c1ccc(CCNc2nc3c(-c4cccc(F)c4)nnn3c3ccc(Cl)cc23)cc1` was tested, and the inhibition was -5.98%. Work on `CCOc1ccccc1NC(=O)Cn1nnc2sc3c(c2c1=O)CCC(C(C)(C)C)C3` (stereo not drawn) yielded an inhibition of -5.27%. Work on `COc1ccc(C(=O)N2CCCCC2CCN2CCCCC2)cc1` (stereo not drawn) yielded an inhibition of -14.8%. With `O=S(=O)(c1cccs1)N1CCN(c2ccc(Cl)cc2)CC1` the inhibition was -3.67%. For `CCC(CC)C(=O)Nc1ccccc1C(=O)OCc1cc(=O)n2nc(C3CCCCC3)sc2n1`, the inhibition was 14.9%. Work on `COc1ccc(Cl)cc1N(C)C(=O)Cn1cnc2sc(C)c(S(=O)(=O)N3CCN(c4ncccn4)CC3)c2c1=O` yielded an inhibition of 0.724%. In the case of `Cc1ccc(C)c(CN2C(=O)c3ccccc3S(=O)(=O)c3ccc(C(=O)N4CCOCC4)cc32)c1`, the inhibition is reported as -7.8%. Work on `CCOc1ccc(CNC(=O)Cn2ncc3c(=O)oc4ccc(C)cc4c32)cc1` yielded an inhibition of -25.7%. Work on `Cc1ccc(CNC(=O)C2CCN(S(=O)(=O)c3ccc4c(c3)oc(=O)n4C)CC2)cc1` yielded an inhibition of 23.4%. For `Cc1cc(C)cc(NC(=O)CSc2nc3nc(C)cc(C)c3c(=O)[nH]2)c1`, the inhibition was active: 34.6%. Work on `CCc1ccc(-n2nc(C)c3c(C)cc(=O)n(CC(=O)Nc4ccc(OC)c(OC)c4)c32)cc1` yielded an inhibition of -1.92%. `CCOC(=O)c1c(C)[nH]c(C)c1S(=O)(=O)N1CCCC(C(=O)N2CCN(c3cc(C)ccc3C)CC2)C1` (stereo not drawn) showed an inhibition of 10.3%. For `Cc1ccc(-c2cc(C(F)(F)F)n3nc(C(=O)Nc4ccc(C#N)cc4)cc3n2)cc1`, the inhibition was 7.17%. `CCCCC(=O)Nc1nc2c(s1)COc1ccccc1-2` was tested, and the inhibition was active: 52.4%. `CCOc1ccccc1CNC(=O)CCCN1C(=O)CCn2nc(-c3cccn3C)cc21` was tested, and the inhibition was -8.21%. `Cc1cc(NC(=O)C2CCCN(S(=O)(=O)c3cccc4nonc34)C2)ccc1Br` (stereo not drawn) gave an inhibition of -13.3%. In the case of `COc1ccc(OC)c(CNCc2c(C(=O)O)n(Cc3ccccc3)c3cc(OC)ccc23)c1`, the inhibition is reported as 6.4%. Compound `O=C1Nc2ccccc2Oc2cc(Oc3ccc(Cl)cc3)ccc21` has an inhibition of -19.2%. With `O=C(CN1N=C(c2ccc(Cl)cc2)CCC1=O)NCc1ccc(F)cc1` the inhibition was -14.4%. `CCC(=O)N1CCc2cc(S(=O)(=O)NC(CC(C)C)C(=O)Nc3ccc(CC)cc3)ccc21` (stereo not drawn) showed an inhibition of -7.88%. `CCc1cccc(C)c1NC(=O)c1cnn(-c2ccc(F)cc2)c1-n1cccc1` gave an inhibition of 17%. For `CSc1nn(Cc2cccc(F)c2)c(N(C(C)=O)C(C)=O)c1S(=O)(=O)c1ccccc1`, the inhibition was 7.91%. Work on `Cc1cccc2sc(N3CCN(C(=O)c4ccco4)CC3)nc12` yielded an inhibition of -8.76%. With `Cc1cccc(S(=O)(=O)c2cn(Cc3ccccc3)c3cc(N4CCCC(C)C4)c(F)cc3c2=O)c1` (stereo not drawn) the inhibition was 14.2%. `CCOc1ccc(S(=O)(=O)Nc2ccc(-c3ccc(N4CCCC4)nn3)cc2)cc1` was tested, and the inhibition was 1.52%. In the case of `COc1ccccc1CNC(=O)C(=O)NCC(c1ccc2c(c1)OCO2)N1CCOCC1` (stereo not drawn), the inhibition is reported as -2.9%. Compound `CCc1ccc(-c2nc(SCC(=O)NCCOC)c(-c3ccc(C)cc3)[nH]2)cc1` has an inhibition of -2.49%. For `CCc1ccc(CNc2nc3nc(C)c(Cc4ccccc4)c(=O)n3[nH]2)cc1`, the inhibition was -3.11%. In the case of `CCc1ccc(CN2CCc3nc(Nc4ccc5c(c4)OCCO5)ncc3C2)cc1`, the inhibition is reported as 7.23%. For `COc1ccc(Nc2nnc(-c3ccc(C)c(S(N)(=O)=O)c3)c3ccccc23)cc1`, the inhibition was 1.43%. `CC(=O)c1cccc(NC(=O)C2=CC(c3ccco3)=NS(=O)(=O)N2C)c1` showed an inhibition of 6.89%. `COc1ccc(CCNc2oc(COc3ccc(Cl)cc3)nc2C#N)cc1OC` gave an inhibition of 7.4%. In the case of `CCc1ccc2nc(N3CCN(C(=O)c4ccco4)CC3)sc2c1`, the inhibition is reported as -23.4%. Compound `Cc1ccc(NC(=O)Cn2c(=O)oc3cc(S(=O)(=O)N4CCCC4)ccc32)cc1F` has an inhibition of -3.39%. Work on `CCOC(=O)c1ccc(NC(=O)C2CCCN(c3ncnc4onc(C)c34)C2)cc1` (stereo not drawn) yielded an inhibition of -12.8%. In the case of `Cc1nc2ccc(S(=O)(=O)CCC(=O)Nc3ccccc3C)cc2s1`, the inhibition is reported as 11.3%. In the case of `Cc1ccc2ncc3c(-c4ccccc4)nn(CC(=O)NC4CCCCC4)c3c2c1`, the inhibition is reported as -4.44%. `O=C(CC1NCCNC1=O)Nc1cccc(F)c1` (stereo not drawn) showed an inhibition of 16.5%. With `COc1ccccc1N1CCN(CCCNC(=O)Cn2ncc3c([nH]c4ccccc43)c2=O)CC1` the inhibition was active: 90.3%. In the case of `O=C(Nc1cccc(C(F)(F)F)c1)c1cc2ncc(Br)cn2n1`, the inhibition is reported as active: 52.9%. For `COc1ccc(NC(=O)CSC2=Nc3ccccc3C3=NC(CCC(=O)NCc4ccco4)C(=O)N23)cc1` (stereo not drawn), the inhibition was -24.1%. `O=C(Nc1ccc(NC(=O)c2cc3ccccc3o2)cc1)c1ccccc1` gave an inhibition of 7.19%. `Cn1cc(S(=O)(=O)c2ccc(Cl)cc2)c(=O)c2cc(F)c(N3CCCCCC3)cc21` was tested, and the inhibition was -0.917%. In the case of `O=C(CN1CCN(S(=O)(=O)c2cc(Cl)ccc2Cl)CC1)Nc1cccc(F)c1`, the inhibition is reported as 4.39%. `CC(C(=O)Nc1cccc(C#N)c1)n1nc(-c2ccccc2)c2c(c1=O)CCCC2` (stereo not drawn) was tested, and the inhibition was -9.25%. Compound `Fc1ccc(-c2nc(Nc3ccc(F)c(Cl)c3)nc3c2COc2ccccc2-3)cc1` has an inhibition of 6.86%. Work on `CCOc1ccc(C2CC(=O)n3nc(-c4ccc(C)cc4)nc3S2)cc1OC` (stereo not drawn) yielded an inhibition of -1.67%. `CC1=C(C(=O)Nc2ccc(C)cc2C)C(c2ccccc2[N+](=O)[O-])n2ncc(C(=O)Nc3ccccc3)c2N1` (stereo not drawn) was tested, and the inhibition was -12%. `CCC1CCCCN1CCCCOc1cccc(Cl)c1` (stereo not drawn) was tested, and the inhibition was active: 54.9%. `CCOC(=O)C1CCCN(C(=O)c2ccc3c(c2)N(Cc2ccccc2)C(=O)c2ccccc2S3(=O)=O)C1` (stereo not drawn) was tested, and the inhibition was 1.36%. `CCOc1ccc(NC(=O)c2ccc3c(SCC(=O)O)c4c(nc3c2)CCCC4)cc1` showed an inhibition of -10.4%. `Cc1ccc(C)c(N2CCN(C(=O)C3CCN(c4nc(-c5ccc(C(C)C)cc5)no4)CC3)CC2)c1` showed an inhibition of 3.26%. `Cc1ccc(C(=O)N2CCc3cc(CNS(=O)(=O)c4ccc(Cl)s4)ccc32)cc1` showed an inhibition of 22.9%. `CCS(=O)(=O)N1CCc2cc(C(=O)NCc3ccc(OC)cc3)ccc21` gave an inhibition of 4.18%. `CCC(CC)C(=O)Nc1ccc(OCc2cc(=O)n3c4c(sc3n2)CCCC4)cc1` showed an inhibition of 4.1%. `O=C(NC1CC1)c1ccc(Cn2c(SCc3cccc(F)c3)nc3cccnc32)cc1` gave an inhibition of 4.08%. `O=C(NCC(c1cccnc1)N1CCc2ccccc2C1)c1ccc(F)c(F)c1` (stereo not drawn) showed an inhibition of -3.25%. With `O=C(Nc1ccc(Cl)cc1)C1CCN(c2nc3ccccc3nc2C(F)(F)F)CC1` the inhibition was 6.64%. For `COc1ccc(CCN2C(=O)c3oc4cc(C)cc(C)c4c(=O)c3C2c2ccc(F)cc2)cc1OC` (stereo not drawn), the inhibition was 10.7%. `COc1ccccc1N1CCN(C(=O)c2ccc(CS(=O)c3ccccc3C)o2)CC1` (stereo not drawn) gave an inhibition of 12.5%. With `COCCc1nn2c(=O)cc(COC(=O)c3ccc4c(c3)OCO4)nc2s1` the inhibition was 0.0236%. For `CC(=O)Nc1sc(/C(C#N)=C\c2cccc(Cl)c2)nc1-c1ccc(C)cc1`, the inhibition was active: 30.2%. With `Cc1ccc(Nc2nc(N)nc(CN3CCN(c4ccccc4F)CC3)n2)cc1` the inhibition was active: 78.2%. With `Cc1ccc(NC2=C(c3ccc(C(F)(F)F)cc3)C(=O)c3ccccc32)cc1C` the inhibition was -3.26%. For `CC(=O)Nc1ccc(C(=O)CSc2nnc(-c3ccccc3)n2-c2ccccc2)cc1`, the inhibition was 2.46%. `Cc1ccc(S(=O)(=O)c2nc(-c3ccccc3F)oc2N2CCCCC2)cc1` was tested, and the inhibition was 23.2%. Work on `Cc1ccc(-c2cc(C(=O)NCc3cnn(C)c3C)c3cc(Br)ccc3n2)cc1` yielded an inhibition of 8.61%. In the case of `COc1ccc(Cl)cc1Nc1sc(C(=O)c2ccccc2)c(N)c1C(=O)Nc1ccccc1`, the inhibition is reported as -13.3%. In the case of `N#CCc1ccc(NC(=O)/C=C/c2ccc([N+](=O)[O-])o2)cc1`, the inhibition is reported as active: 31.9%. `CC(=O)N1CCc2cc(CNS(=O)(=O)c3ccc(F)cc3)ccc21` gave an inhibition of -26.1%. Compound `CCc1c(C)sc2c1CCN(Cc1cccc(F)c1)C2c1ccccc1` (stereo not drawn) has an inhibition of -3.86%. In the case of `O=C(NCc1cccc(Cl)c1)c1cc2c(s1)-c1ccccc1OC2`, the inhibition is reported as -24.2%. `CCc1ccc(-c2cn3c(n2)sc2cc(C(=O)NC4CCCCCC4)ccc23)cc1` showed an inhibition of 19.5%. `COP(=O)(/C=C/c1ccccc1)C(O)c1ccc(F)cc1` (stereo not drawn) was tested, and the inhibition was active: 44.9%. `O=C(CN1C(=O)COc2ccc(S(=O)(=O)N3CCCCCC3)cc21)NCc1ccc(Cl)cc1` gave an inhibition of 22.7%. In the case of `O=C(NCCCN1CCN(c2ccccc2F)CC1)Nc1ccc(F)cc1`, the inhibition is reported as active: 80.7%. In the case of `CCc1ccc(N=C2NC(=O)CC(C(=O)Nc3ccc(OC)cc3)S2)cc1` (stereo not drawn), the inhibition is reported as -9.06%. Compound `COc1cc2c(cc1OC)C(COc1ccccc1OC)N(C(=O)CC(C)C)CC2` (stereo not drawn) has an inhibition of 28.2%. In the case of `CC(=O)CC(c1ccccc1)S(=O)(=O)c1ccc([N+](=O)[O-])cc1` (stereo not drawn), the inhibition is reported as active: 70.3%. `CCOC(=O)c1ccccc1NC(=O)Cn1cc(C(=O)c2cccc(OC)c2)c(=O)c2ccc(C)nc21` was tested, and the inhibition was -11.2%. `Cc1cccc(-c2nc(S(=O)(=O)c3ccc(F)cc3)c(N3CCN(c4ccccc4)CC3)o2)c1` gave an inhibition of 0.914%. `Cc1ccc(CCNC(=O)c2ccc3c(c2)N(Cc2cccc(C)c2)C(=O)c2ccccc2S3(=O)=O)cc1` showed an inhibition of 6.2%. Work on `CC(C)c1ccc(NC(=O)c2cc3c(s2)-c2ccccc2SC3)cc1` yielded an inhibition of 13.7%. For `COC(=O)CCC(=O)OC1(C)C(=O)C2=CN(C(CO)CO)C(c3ccc(OC)cc3)=CC2=C(Br)C1=O` (stereo not drawn), the inhibition was active: 30%. For `Cc1ccc(O)c(C(CC(=O)NCC2(c3ccccc3)CCCC2)c2ccccc2)c1` (stereo not drawn), the inhibition was -8.86%. Work on `CCc1c(C)nc(SCC(=O)N2CCN(c3ccccc3OC)CC2)[nH]c1=O` yielded an inhibition of -3.48%. In the case of `CC(=O)N1CCOc2cc(S(=O)(=O)Nc3cccc(C(F)(F)F)c3)c(Cl)cc21`, the inhibition is reported as -26.3%. Work on `CCOC(=O)c1ccccc1NC(=O)C(=O)Nc1ccc2nc3n(c(=O)c2c1)CCCCC3` yielded an inhibition of -6.34%. `COc1ccc(NC(=O)C2CCN(S(=O)(=O)c3ccc4[nH]c(=O)ccc4c3)CC2)c(OC)c1` gave an inhibition of 7.17%.
